# Results taken from paper PMC4336329 (PLoS ONE, 2015).
# In all, about 310,000 compounds went through this assay and about 14,000 (4.5%) showed an effect of 50% or more. Effects have a minus sign here. This is one part of the list.
# Biological target: human ether-à-go-go-related gene (hERG) potassium channel (human, UniProt Q12809)
# Assay: primary screen, population patch clamp on CHO cells stably expressing hERG
# 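Further: peak tail current of the secondary pulse compared with the same well before compound.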
# Sequence of human ether-à-go-go-related gene (hERG) potassium channel (Q12809 whole entry, looked up): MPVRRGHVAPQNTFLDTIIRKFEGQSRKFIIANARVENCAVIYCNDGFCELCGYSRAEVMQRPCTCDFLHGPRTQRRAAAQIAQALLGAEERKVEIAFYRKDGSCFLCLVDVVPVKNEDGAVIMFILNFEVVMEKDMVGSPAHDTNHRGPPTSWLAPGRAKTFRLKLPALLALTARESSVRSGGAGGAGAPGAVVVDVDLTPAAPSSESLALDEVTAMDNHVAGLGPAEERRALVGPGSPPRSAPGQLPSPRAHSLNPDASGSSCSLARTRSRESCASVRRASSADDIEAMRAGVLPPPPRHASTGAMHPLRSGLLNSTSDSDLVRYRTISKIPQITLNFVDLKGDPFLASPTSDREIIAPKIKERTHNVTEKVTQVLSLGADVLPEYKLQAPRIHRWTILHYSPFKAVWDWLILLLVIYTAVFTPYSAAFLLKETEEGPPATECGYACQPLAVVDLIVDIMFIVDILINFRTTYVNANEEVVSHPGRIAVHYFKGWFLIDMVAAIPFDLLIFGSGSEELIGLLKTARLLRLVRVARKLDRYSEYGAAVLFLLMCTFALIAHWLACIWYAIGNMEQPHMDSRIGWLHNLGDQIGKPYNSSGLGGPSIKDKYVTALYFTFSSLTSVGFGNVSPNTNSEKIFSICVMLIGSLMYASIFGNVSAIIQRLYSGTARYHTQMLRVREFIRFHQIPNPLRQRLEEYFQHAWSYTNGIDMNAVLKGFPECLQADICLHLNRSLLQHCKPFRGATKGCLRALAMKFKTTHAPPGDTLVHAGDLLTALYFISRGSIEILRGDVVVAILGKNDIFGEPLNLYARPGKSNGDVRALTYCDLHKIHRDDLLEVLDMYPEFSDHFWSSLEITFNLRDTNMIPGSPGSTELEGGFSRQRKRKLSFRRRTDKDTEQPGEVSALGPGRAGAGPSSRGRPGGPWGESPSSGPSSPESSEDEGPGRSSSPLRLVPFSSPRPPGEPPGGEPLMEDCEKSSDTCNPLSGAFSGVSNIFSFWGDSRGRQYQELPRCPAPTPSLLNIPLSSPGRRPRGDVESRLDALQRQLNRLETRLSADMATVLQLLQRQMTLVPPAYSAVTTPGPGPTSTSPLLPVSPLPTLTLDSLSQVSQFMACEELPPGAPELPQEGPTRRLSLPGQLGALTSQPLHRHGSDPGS
row,SMILES,"hERG current change (%, negative = inhibition) at 10uM [%]"
1,CC(=O)c1ccc(-n2nncc2C(C)(C)C)cc1,-3.77
2,C/C(CC1CC(C)(C)OC1=O)=N\NC(N)=S (stereo not drawn),2.87
3,COc1ccc(CN(CCN(C)C)Cc2ccccc2)c(OC)c1.O=C(O)C(=O)O,-46.1
4,CCOC(=O)C1C(C(=O)NN)C1C(=O)Nc1ccccc1 (stereo not drawn),18
5,Fc1cc(F)c(NC(=S)N2CCOCC2)c(F)c1,16.4
6,CCCCc1nc2n[nH]c(N)c2c2c1CCC2,-13.1
7,O=C(Cc1cccc2ccccc12)Nc1c(F)cccc1F,12.6
8,C=CCN(c1ccccc1)S(=O)(=O)c1cccc(C(=O)NCC(c2cccs2)N2CCOCC2)c1 (stereo not drawn),-18.7
9,Cc1ccc2[nH]cc(C(=O)NCc3cccs3)c(=O)c2c1,-13.7
10,NC(=O)C1CCN(C(=O)c2ccc(F)c(S(=O)(=O)N3CCOCC3)c2)CC1,-0.931
11,C/C(=N\NC(N)=S)c1cccnc1,2.44
12,COCCOC(=O)c1c(C)oc2ccc(NS(=O)(=O)c3cccs3)cc12,-51.4
13,COc1ccc(CNC(=O)CCS(=O)(=O)c2cc3c(cc2Cl)NC(=O)CO3)cc1,-9.24
14,COc1cc(C(=O)NCc2nnc(SCC(=O)Nc3cccc(C)c3)o2)cc(OC)c1OC,-8.21
15,COCCNCC(=O)NCC12CC3CC(CC(C3)C1)C2.Cl,5.25
16,O=C(c1ccc(SCc2cccc(Br)c2)c([N+](=O)[O-])c1)N1CCN(c2ccccn2)CC1,15
17,Cc1cc(C)nc(N2CCC(C(=O)NCc3cccs3)CC2)n1,-5.51
18,Cn1c(-c2cccc([N+](=O)[O-])c2)cnc1NCc1cccc(F)c1.O=C(O)C(=O)O,-54.1
19,C/C(=N/NC(=O)c1ccc2c(c1)OCO2)c1ccc(Br)s1,-1.53
20,O=S(=O)(CCn1cccc1)CCn1cccc1,17.4
21,COc1cccc(CN2CC(C(=O)N(C)CCc3ccccc3)CCC2=O)c1 (stereo not drawn),2.65
22,CCCOP(=O)(c1ccc(N(C)C)cc1)C(O)c1cc(OC)c(OC)c(OC)c1 (stereo not drawn),3.99
23,Cc1ccc(-c2cnc(C3CC3)o2)cc1S(=O)(=O)Nc1ccccc1,-1.57

row,SMILES,"hERG current change (%, negative = inhibition) at 10uM [%]"
1,Cc1ccc(C)c(NC(=O)CCN2CCCC(C)C2)c1 (stereo not drawn),9.96
2,O=[N+]([O-])c1cccc2c3c([nH]c12)CCCC3,17.4
3,CN(C)C(CNC(=O)CSc1nc2sc3c(c2c(=O)n1C)CCC3)c1ccccc1 (stereo not drawn),-3.25
4,CC(C)C(=O)Nc1ccc(-c2ccc3nncn3n2)cc1,8.98
5,CCOc1cc(CNc2ccc(O)cc2)ccc1OCc1ccc(Cl)cc1Cl,0.771
6,C/C=C/C(=O)N1c2ccccc2C(C)=CC1(C)C,3.41
7,COc1ccc(-c2nnc3sc(-c4ccco4)nn23)cc1OC,3.81
8,O=C(CN1CCCCCC1)Nc1ccc(Cl)cn1,1.45
9,CC(C)NC(=O)c1sc(=S)n2c1[nH]c(=O)c1ccc(C(=O)NCCc3ccc(Cl)cc3)cc12,14.1
10,CC(C)(C)CN1CCC(Oc2cccc(C(=O)NCCCOc3cccnc3)c2)CC1,-12
11,CC12c3ccccc3C(c3ccccc31)C1C(=O)N(c3ccncc3)C(=O)C12 (stereo not drawn),5.22
12,Cc1cc(OCC(=O)Nc2ccc(CN3CCCCC3)cc2)ccc1Cl,-73.9
13,CC1CCCCC12NC(=O)N(CC(=O)OCc1cccc(F)c1)C2=O (stereo not drawn),-2.4
14,COc1ccc(N2C(=O)NC3CC2(C)Oc2ccccc23)cc1 (stereo not drawn),5.59
15,O=C(NCC1CCCO1)C1C2C=CC3(CN(Cc4cccs4)C(=O)C13)O2 (stereo not drawn),-9.26
16,CCOc1cc(C2C3=C(CCCC3=O)NC3=C2C(=O)CCC3)cc(Cl)c1O,-12.5
17,CN1CCN(CC(O)COc2ccc(S(=O)(=O)N3CCOCC3)cc2)CC1 (stereo not drawn),8.09
18,CS(=O)(=O)Nc1ccc(C(=O)NCCSCc2ccccc2)cc1,-45.1
19,CCN(CC)CCNc1ccc2nnc(CCNS(=O)(=O)c3ccc(C)cc3)n2n1,15
20,Cc1ccc(-c2ccc(=O)n(CC(=O)NCCN3CCCCC3C)n2)cc1 (stereo not drawn),0.96
21,Cc1cc(NC(=O)CC2(CC(=O)O)CCCC2)n(C)n1,14.3
22,CC(C)COC(=O)c1ccc2c(c1O)C(=O)c1ccccc1C2=O,-4.08
23,COc1cc(C(=O)Nc2ccc(O)cc2)ccc1OC(C)=O,-6.49

row,SMILES,"hERG current change (%, negative = inhibition) at 10uM [%]"
1,NC(=O)C1CCN(CCC(=O)Nc2ccc(F)c(F)c2)CC1,11.1
2,CC(=O)Nc1ccc(C(=S)NCC2(N(C)C)CCCCC2)cc1,7.09
3,O=C(c1ccccc1)c1ccc(OC(=O)N2CCCC2)cc1,-11
4,COc1ccc(NC(=O)C2CCCO2)cc1OC (stereo not drawn),-0.381
5,O=C(COc1ccccc1/C=C1/NC(=O)NC1=O)Nc1ccccc1,8.62
6,CCOC(=O)CCNC(=O)Nc1ccc2nc(C)n(Cc3cccc(Cl)c3)c(=O)c2c1,-18.2
7,CCC(C)c1ccccc1NC(=O)C(C)Sc1n[nH]c(N)n1 (stereo not drawn),14.5
8,Cn1c(N)c(S(=O)(=O)c2ccc(Br)cc2)c2nc3ccccc3nc21,18.5
9,CC(=O)c1ccc(S(=O)(=O)Nc2cccc(S(=O)(=O)NC3=NCCC3)c2)cc1,14.3
10,O=C(CCC(=O)Nc1ccc(F)cc1)N/N=C/c1ccc(Br)cc1,15.9
11,C=CCOc1ccc(CNCC2CCCO2)cc1.Cl (stereo not drawn),12.1
12,COc1cc(NS(=O)(=O)c2cc3c(cc2C)NC(=O)CO3)cc(OC)c1,-62.2
13,CCN1CCCC1CN(Cc1cc2ccc(C)c(C)c2[nH]c1=O)C(=O)Nc1ccccc1OC (stereo not drawn),-63.3
14,COC(c1ccccc1)c1nnc(CCC(=O)N(C)CCOc2ccccc2)o1 (stereo not drawn),3.87
15,CC(C)CCNC(=O)c1c(N)n(CC2CCCO2)c2nc3ccccc3nc12 (stereo not drawn),-0.646
16,COc1cc(/C=C2\N=C(c3ccccc3)OC2=O)ccc1OCc1c(C)no[n+]1[O-],3.47
17,CCOc1ccccc1N1C(=O)c2ccc(S(=O)(=O)c3ccc(C(=O)O)cc3)cc2C1=O,10.6
18,COc1ccc(/C=C/C(=O)OCC(=O)c2ccc[nH]2)cc1,6.05
19,CCCNC(=O)CCn1c(=S)oc2ccccc21,-1.98
20,CCOC(=O)CNC(=O)CSc1nc2cccnc2n1Cc1ccccc1,-53.9
21,CCOc1ccc(-c2cn(-c3ccccc3OC)c(=S)[nH]2)cc1,12.3
22,c1ccc(NC2=NCCN2CCCC2CCCCC2)cc1,-47.6
23,CC1CCCN(C(=O)CCCC(=O)N2CCCC(C)C2)C1 (stereo not drawn),0.329

row,SMILES,"hERG current change (%, negative = inhibition) at 10uM [%]"
1,O=C(NCCc1ccccn1)c1nc(Cn2ccc([N+](=O)[O-])n2)no1,-2.95
2,COc1ccc(C2C3=C(CC(C)(C)CC3=O)Nc3cc4c(cc32)OCO4)cc1 (stereo not drawn),-13
3,Cc1ccccc1-n1nnnc1SCC(=O)Nc1ccc(N2CCN(C)CC2)cc1,-35.8
4,O=C(O)c1nn(CC(=O)N(C2CCCCC2)C2CCCCC2)c(=O)c2ccccc12,-0.247
5,COc1ccc(-c2cc(-c3ccccc3)nc(-c3ccc4c(c3)NC(=O)CO4)c2)cc1,-1.62
6,N#CCCN(Cc1cccnc1)C(=S)NC(=O)C1CC1,16.8
7,COc1ccc(C(=O)C2CCCN(Cc3cccc4c3OCO4)C2)cc1OC (stereo not drawn),-73.8
8,Cc1ccccc1OCC(=O)N/N=C/c1c(C)nn(-c2ccccc2)c1Cl,1.74
9,O=C(NCc1cccnc1)c1ccc(N2CCOCC2)c([N+](=O)[O-])c1,-5.49
10,Cc1nc2scc(C)n2c(=O)c1S(=O)(=O)N1CCN(c2ccccc2F)CC1,-33.6
11,C=CCn1c(O)c(C(C)=Nc2ccc(NC(C)=O)cc2)c(=O)[nH]c1=O,3.28
12,CCOc1cccc2sc(NC(=O)CCS(=O)(=O)c3ccccc3)nc12,7.94
13,COc1ccc(/C=C/CN2CCC(Oc3ccc(C(=O)N4CCCCC4)cc3)CC2)cc1,-53.6
14,Cc1cc(NC(=O)CSc2c[nH]c3ccccc23)no1,-16.9
15,COc1ccc(Sc2nc(-c3ccccc3)ncc2C(=O)O)cc1,9.35
16,COc1ccccc1CNC(=O)C1CCN(S(=O)(=O)c2ccc3c(c2)CC(C)N3C(=O)C2CC2)CC1 (stereo not drawn),3.51
17,CC(C)NC(=O)c1ccc2c(=O)n(Cc3ccco3)c(=S)[nH]c2c1,5.96
18,O=C(Nc1ccc2nsnc2c1)N1CCCCCC1,-3.71
19,COc1cc2c(cc1OC)C1=C(C#N)CCC(=O)N1CC2,5.55
20,Cc1ccc(NC(=O)CCl)c(C)c1,21.6
21,O=C(CSC(=S)N1CCCC1)c1cc(Br)cc(Br)c1O,19.2
